# According to PubChem BioAssay (NCATS):
# Values joined by “and” are separate entries in the source; they are usually repeats but may differ in a detail not shown here. Equal entries are not always repeated. The shares of active, inactive and inconclusive entries below differ from those in the screen. Where a call stands in place of a potency, no number is given. For some assays here: Potencies of inconclusive entries are doubtful fits and often do not repeat. Active and inactive are the calls of the source. Unless noted, calls follow the shape of the dose curve; as a rule, active = well fitted curve in the direction sought with a large enough effect; inconclusive = small, poorly fitted or top-dose-only effect, or another doubt; inactive = no such curve, though single readings can be large; an effect the other way counts as inactive or inconclusive.
# Tests used:
# [1] = qHTS of pediatric cancer cell lines to identify multiple opportunities for drug repurposing: Primary screen for A673 cells (AID 1347092); details: A673 Ewing sarcoma viability, CellTiter-Glo ATP luminescence, 48 h; activity change, negative = cytotoxic: at 46 µM (top of the series); also: nearly all actives have a fitted effect of over 45% in size
# Method in brief: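 A673 cells (500-1,000 cells/well in growth media) were pre-incubated 5 h at 37 degrees C, then exposed to compounds for 48 h. Viability was read as CellTiter-Glo luminescence; concentration-response curves came directly from the primary screen.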
# [2] = qHTS of pediatric cancer cell lines to identify multiple opportunities for drug repurposing: Primary screen for SK-N-MC cells (AID 1347093); details: SK-N-MC viability, CellTiter-Glo luminescence, 48 h; activity change, negative = cytotoxic: at 46 µM (top of the series); also: potency is read from the fitted curve at half-maximal effect
# Method in brief: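 Metabolically active cells were quantified by ATP-dependent luminescence (CellTiter-Glo, 15 min at room temperature) following 48 h treatment. Cells had been plated at 500-1,000 per well and settled for 5 h beforehand.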
# [3] = qHTS of pediatric cancer cell lines to identify multiple opportunities for drug repurposing: Primary screen for Saos-2 cells (AID 1347097); details: Saos-2 viability, CellTiter-Glo ATP luminescence, 48 h; activity change, negative = cytotoxic: at 46 µM (top of the series); also: nearly all actives have a fitted effect of over 40% in size
# Method in brief: (§1)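 Luminescence from CellTiter-Glo served as readout of metabolically active cells after 48 h compound exposure. Titrations: MIPE 11-point, from 0.78 nM; NPC 8-point, from 0.59 nM (final). Concentration-response curves came straight from the primary screen.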
# [4] = Primary qHTS for small molecule stabilizers of the endoplasmic reticulum resident proteome: Secreted ER Calcium Modulated Protein (SERCaMP) assay (AID 1508630); details: SH-SY5Y GLuc-SERCaMP (Gaussia luciferase released on ER calcium loss) secretion, thapsigargin, luminescence; series mostly up to 38.4 µM; also: potency is read from the fitted curve at half-maximal effect
# Method in brief: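 The SH-SY5Y reporter protocol was run at 3 concentrations up to 38.3 uM (primary) or 11 concentrations (follow-up): 16 h compound, 100 nM thapsigargin for 4 h, then extracellular luciferase luminescence.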
# [5] = target: Cytochrome P450 2D6 (Homo sapiens) (UniProt P10635); experiment: Cytochrome P450 family 2 subfamily D member 6 (CYP2D6) small molecule antagonists: luciferase biochemical (cell-free) qHTS assay (AID 1645840; active = well fitted curve in the direction sought with a large enough effect in the repeat runs; inconclusive = weak or mixed curves; inactive = no such curve, though single readings can be large; an effect the other way counts as inactive or inconclusive; also: nearly all actives have a fitted effect of over 55% in size; also: potency is read from the fitted curve at half-maximal effect)
# Method in brief: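 P450-Glo CYP2D6 system: proluciferin substrate converted by enzyme to luciferin, read by luminescence proportional to activity. Enzyme-substrate mix with compound 10 min at room temperature, then NADPH regeneration 1 h before detection reagent.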
# [6] = target: Cytochrome P450 2C9 (Homo sapiens) (UniProt P11712); experiment: Cytochrome P450 family 2 subfamily C member 9 (CYP2C9) small molecule antagonists: luciferase biochemical (cell-free) qHTS assay (AID 1645842; active = well fitted curve in the direction sought with a large enough effect in the repeat runs; inconclusive = weak or mixed curves; inactive = no such curve, though single readings can be large; an effect the other way counts as inactive or inconclusive; also: nearly all actives have a fitted effect of over 55% in size; also: potency is read from the fitted curve at half-maximal effect)
# Method in brief: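 P450-Glo CYP2C9 system: proluciferin substrate with enzyme in mix containing 0.4% BSA, 10 min at room temperature, then NADPH regeneration solution added and incubated 1 h at 37C. Detection reagent stopped reaction; luminescence read after 20 min as RLU.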
# [7] = Primary qHTS for inhibitors of nuclear receptor binding SET domain protein 2 (NSD2) in an isogenic RCH-ACV NSD2 p.E1099K mutant (9B) (AID 1645876); details: activity change, negative = viability loss: at 44.9 µM (top of the series) unless noted; also: nearly all actives have a fitted effect of over 70% in size; also: potency is read from the fitted curve at half-maximal effect
# [8] = Primary qHTS for inhibitors of nuclear receptor binding SET domain protein 2 (NSD2) in an RCH-ACV wild type WT cells (2C) (AID 1645877); details: activity change, negative = cell killing: at 44.9 µM (top of the series) unless noted; also: nearly all actives have a fitted effect of over 70% in size; also: potency is read from the fitted curve at half-maximal effect
# [9] = tested on: MKL-2; experiment: qHTS assay to identify novel small-molecules to repurpose for Merkel cell carcinoma treatment (AID 1296009); details: MCC and control cell lines, CellTiter-Glo viability, 72 h; series mostly up to 46 µM; also: nearly all actives have a fitted effect of over 60% in size; also: potency is read from the fitted curve at half-maximal effect
# Method in brief: (§2)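 Viability readout: ATP luminescence (CellTiter-Glo) after 72 hr drug exposure at 37 degree celsius. Dose-response format was 8 points for NPC and 11 points for MIPE; data normalized to in-plate controls.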
# [10] = tested on: UISO; experiment: as above; details: MCC and control cell lines, CellTiter-Glo viability, 72 h; series mostly up to 46 µM
# Method in brief: as §2
# [11] = qHTS of pediatric cancer cell lines to identify multiple opportunities for drug repurposing: Primary screen for NB-EBc1 cells (AID 1347095); also: potency is read from the fitted curve at half-maximal effect
# Method in brief: as §1
# [12] = A High-Content qHTS Against Drug Library for the Identification of Small Molecules that Inhibit DYT1 Early Onset Primary Dystonia-Associated Cell Pathology (AID 1645839; calls by dose curve; also: potency is read from the fitted curve at half-maximal effect)
# Method in brief: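 Induced EGFP-delE TorsinA cells are imaged after 48 h of compound treatment. Punctate fusion-protein distribution gives the %pathology value, while nuclei counts flag toxicity. Wild-type EGFP-hTOR1A cells define the normal pattern.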
# [13] = tested on: WaGa; experiment: qHTS assay to identify novel small-molecules to repurpose for Merkel cell carcinoma treatment (AID 1296009); details: MCC and control cell lines, CellTiter-Glo viability, 72 h; series mostly up to 46 µM; also: nearly all actives have a fitted effect of over 60% in size; also: potency is read from the fitted curve at half-maximal effect
# Method in brief: as §2
# [14] = qHTS of pediatric cancer cell lines to identify multiple opportunities for drug repurposing: Primary screen for OHS-50 cells (AID 1347103); details: OHS-50 osteosarcoma viability, CellTiter-Glo luminescence, 48 h; activity change, negative = cytotoxic: at 57.3 µM (top of the series); also: nearly all actives have a fitted effect of over 40% in size
# Method in brief: (§3)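 Cells (500-1,000/well) rested 5 h, then received compounds for 48 h; metabolically active cells were measured by CellTiter-Glo luminescence. Final concentrations spanned up to 46 µM (MIPE, 11-point) or 0.59 nM-46 µM (NPC, 8-point) in primary screens, 11-point in follow-ups.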
# [15] = Drug repurposing screens with cells derived from glioblastoma tumor samples (AID 1345199); details: GBM patient neurospheres viability, ATP luminescence, 48 h; Potency: tumour line A unless noted; series mostly up to 46 µM; also: nearly all actives have a fitted effect of over 40% in size; also: potency is read from the fitted curve at half-maximal effect
# Method in brief: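 Primary testing used CD133+ neurospheres from four GBM patients, seven concentrations, 48 h exposure and ATP-based viability; confirmation added three slower-growing patient lines.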
# [16] = qHTS of pediatric cancer cell lines to identify multiple opportunities for drug repurposing: Primary screen for BT-12 cells (AID 1347101); also: nearly all actives have a fitted effect of over 25% in size
# Method in brief: as §3
# [17] = tested on: MKL-1; experiment: qHTS assay to identify novel small-molecules to repurpose for Merkel cell carcinoma treatment (AID 1296009); details: MCC and control cell lines, CellTiter-Glo viability, 72 h; series mostly up to 46 µM; also: nearly all actives have a fitted effect of over 60% in size; also: potency is read from the fitted curve at half-maximal effect
# Method in brief: as §2
# Tags tell the direction and shape of the fitted curve.
# Chain of UniProt P10635 (P10635 whole entry, looked up): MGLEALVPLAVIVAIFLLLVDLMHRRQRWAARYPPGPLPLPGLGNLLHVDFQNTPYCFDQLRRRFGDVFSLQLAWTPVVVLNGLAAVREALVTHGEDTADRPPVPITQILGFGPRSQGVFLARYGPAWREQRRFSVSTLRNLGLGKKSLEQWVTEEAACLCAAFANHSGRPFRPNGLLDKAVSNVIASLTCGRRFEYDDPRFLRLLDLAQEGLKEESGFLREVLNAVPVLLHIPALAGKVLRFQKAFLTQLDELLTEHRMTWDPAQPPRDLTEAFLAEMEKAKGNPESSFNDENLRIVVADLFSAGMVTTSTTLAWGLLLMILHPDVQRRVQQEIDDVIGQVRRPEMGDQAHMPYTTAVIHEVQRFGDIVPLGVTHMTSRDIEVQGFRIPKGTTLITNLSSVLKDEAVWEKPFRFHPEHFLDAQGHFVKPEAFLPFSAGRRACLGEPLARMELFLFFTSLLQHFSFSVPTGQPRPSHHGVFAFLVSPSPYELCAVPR
# Chain of UniProt P11712 (P11712 whole entry, looked up): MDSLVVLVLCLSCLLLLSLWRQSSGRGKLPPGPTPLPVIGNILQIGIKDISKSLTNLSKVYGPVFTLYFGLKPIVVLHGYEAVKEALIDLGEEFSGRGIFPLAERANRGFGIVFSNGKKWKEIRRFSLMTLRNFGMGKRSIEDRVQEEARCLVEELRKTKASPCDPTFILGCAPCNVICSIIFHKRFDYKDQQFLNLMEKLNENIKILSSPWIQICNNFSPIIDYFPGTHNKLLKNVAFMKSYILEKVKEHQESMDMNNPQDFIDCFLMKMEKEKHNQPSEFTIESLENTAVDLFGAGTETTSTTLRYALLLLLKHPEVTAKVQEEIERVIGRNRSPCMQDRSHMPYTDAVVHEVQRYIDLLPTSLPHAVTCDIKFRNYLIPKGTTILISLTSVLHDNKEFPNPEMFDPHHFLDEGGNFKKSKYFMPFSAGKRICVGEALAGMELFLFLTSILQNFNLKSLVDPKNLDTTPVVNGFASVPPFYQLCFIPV
compound,measurement,setting,value
CC[C@@H](CO)NCCN[C@@H](CC)CO,Potency,[1],inactive
same,Potency,[2],inactive
same,Potency,[3],inactive
same,Potency,[4],"inconclusive: 31.6 µM [inhibitor, partial curve, poor fit]"
same,Potency,[5],inactive
same,Potency,[6],inactive
same,Potency,[7],inactive
same,Potency,[8],inactive
same,Potency,[9],inactive
same,Potency,[10],inactive
O=S(c1cc(Cl)cc(Cl)c1O)c1cc(Cl)cc(Cl)c1O,Potency,[2],"inconclusive: 26.6 µM [cytotoxic, single point]"
same,Potency,[11],"inconclusive: 26.6 µM [cytotoxic, single point]"
same,Potency,[4],inactive
same,Potency,[12],"inconclusive: 10 µM [inhibitor, partial curve, poor fit]"
same,Potency,[5],"inconclusive: 27.5 µM [inhibitor, single point]"
same,Potency,[6],"inconclusive: 30.9 µM [inhibitor, single point]"
same,Potency,[7],"inconclusive: 33.5 µM [inhibitor, single point]"
same,Potency,[8],"inconclusive: 26.6 µM [inhibitor, single point]"
same,Potency,[9],inactive
same,Potency,[13],"inconclusive: 29.9 µM [inhibitor, single point]"
CC(=O)OCC[N+](C)(C)C,Potency,[2],"inconclusive: 23.7 µM [cytotoxic, single point]"
same,Potency,[3],inactive
same,Potency,[14],inactive
same,Potency,[5],"inconclusive: 15.5 µM [inhibitor, partial curve]"
same,Potency,[8],inactive
same,Potency,[9],"inconclusive: 0.841 µM [inhibitor, full curve]"
same,Potency,[10],inactive
same,Potency,[13],"inconclusive: 33.5 µM [inhibitor, single point]"
same,Potency,[15],inactive
CC(=O)/C=C/C=C1/C2CCC(C2)C1(C)C (configuration not stated),Potency,[2],"inconclusive: 33.5 µM [cytotoxic, single point]"
same,Potency,[4],inactive
same,Potency,[6],"inconclusive: 38.9 µM [inhibitor, single point]"
same,Potency,[8],inactive
same,Potency,[9],"inconclusive: 7.5 µM [inhibitor, partial curve]"
same,Potency,[10],inactive
same,Potency,[13],"inconclusive: 26.6 µM [inhibitor, single point]"
O=C(CCCCCCCCC#CI)Oc1ccccc1,Potency,[5],active: 5.42 µM
same,Potency,[7],"inconclusive: 29.9 µM [inhibitor, single point]"
same,Potency,[8],"inconclusive: 29.9 µM [inhibitor, single point]"
same,Potency,[9],active: 9.44 µM
same,Potency,[13],active: 11.9 µM
same,Potency,[15],inactive
CC(=O)OC(C)C[N+](C)(C)C (configuration not stated),Potency,[2],"inconclusive: 16.8 µM [cytotoxic, partial curve, poor fit]"
same,Potency,[16],inactive
same,Potency,[5],"inconclusive: 9.77 µM [inhibitor, partial curve, poor fit]"
same,Potency,[9],"inconclusive: 5.31 µM [inhibitor, single point]"
same,Potency,[13],inactive
CCC(=O)O[C@H]1[C@H](O[C@@H]2[C@@H](C)[C@H](O[C@H]3C[C@@](C)(OC)[C@@H](O)[C@H](C)O3)[C@@H](C)C(=O)O[C@H](CC)[C@@](C)(O)[C@H](O)[C@@H](C)C(=O)[C@H](C)C[C@@]2(C)O)O[C@H](C)C[C@@H]1N(C)C,Potency,[4],"inconclusive: 31.6 µM [inhibitor, partial curve, poor fit] and inconclusive: 7.94 µM [inhibitor, partial curve, poor fit]"
same,Potency,[6],inactive
same,Potency,[8],inactive
same,Potency,[9],inactive
same,Potency,[13],inactive
CN1CC(=O)NC1=N,Potency,[14],inactive
same,Potency,[4],"inconclusive: 31.6 µM [inhibitor, single point]"
same,Potency,[12],inactive
same,Potency,[7],inactive
same,Potency,[17],inactive
same,Potency,[15],inactive
C[C@@H](c1ncncc1F)C(O)(Cn1cncn1)c1ccc(F)cc1F (some centres not stated),Potency,[14],inactive
same,Potency,[9],inactive
same,Potency,[13],inactive
same,Potency,[15],"inconclusive: 35.5 µM [inhibitor, partial curve, poor fit]"
